From PMC4336329 (PLoS ONE, 2015)
Screen size: about 310,000 compounds; about 2,200 (0.71%) showed an effect of 50% or more. Effects have a minus sign here. Some of the results follow.

These compounds were tested against human ether-à-go-go-related gene (hERG) potassium channel (human, UniProt Q12809) (assay: primary screen, population patch clamp on CHO cells stably expressing hERG).
human ether-à-go-go-related gene (hERG) potassium channel, sequence (Q12809 whole entry, looked up): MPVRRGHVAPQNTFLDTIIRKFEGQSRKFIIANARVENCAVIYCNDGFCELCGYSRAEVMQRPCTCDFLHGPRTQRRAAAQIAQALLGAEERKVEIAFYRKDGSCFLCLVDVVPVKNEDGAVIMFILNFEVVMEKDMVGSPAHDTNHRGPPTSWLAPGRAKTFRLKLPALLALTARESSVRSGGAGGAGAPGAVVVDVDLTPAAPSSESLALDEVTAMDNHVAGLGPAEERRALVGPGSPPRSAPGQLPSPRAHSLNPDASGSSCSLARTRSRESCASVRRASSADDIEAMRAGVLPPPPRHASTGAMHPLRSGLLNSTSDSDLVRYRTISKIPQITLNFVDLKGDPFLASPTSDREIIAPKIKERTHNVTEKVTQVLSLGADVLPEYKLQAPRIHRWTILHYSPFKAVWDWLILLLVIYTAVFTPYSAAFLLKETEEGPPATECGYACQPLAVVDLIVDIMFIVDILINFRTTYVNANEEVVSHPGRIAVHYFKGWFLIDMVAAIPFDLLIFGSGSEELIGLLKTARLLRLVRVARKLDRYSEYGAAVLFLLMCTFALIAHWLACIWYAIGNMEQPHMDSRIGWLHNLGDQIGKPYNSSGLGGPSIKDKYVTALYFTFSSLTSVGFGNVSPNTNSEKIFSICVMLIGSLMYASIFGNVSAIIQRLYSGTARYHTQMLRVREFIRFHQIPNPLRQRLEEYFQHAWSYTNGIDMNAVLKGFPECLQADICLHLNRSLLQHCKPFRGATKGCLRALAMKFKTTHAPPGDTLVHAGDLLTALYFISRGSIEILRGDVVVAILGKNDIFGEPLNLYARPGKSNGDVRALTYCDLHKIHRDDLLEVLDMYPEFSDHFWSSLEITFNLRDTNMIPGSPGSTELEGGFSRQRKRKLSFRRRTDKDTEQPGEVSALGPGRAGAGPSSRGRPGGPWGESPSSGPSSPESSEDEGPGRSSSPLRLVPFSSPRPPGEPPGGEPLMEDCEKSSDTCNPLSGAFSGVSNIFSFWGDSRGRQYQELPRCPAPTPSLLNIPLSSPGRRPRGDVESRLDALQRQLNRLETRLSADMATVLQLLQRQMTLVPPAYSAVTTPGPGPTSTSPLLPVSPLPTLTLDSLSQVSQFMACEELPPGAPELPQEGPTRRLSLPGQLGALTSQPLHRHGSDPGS

In order of falling “hERG current change (%, negative = inhibition) at 1uM” value:
1. CCOC(=O)c1c(C)[nH]c(C(=O)COC(=O)CCSc2ccccc2)c1C  18.8%
2. CS(=O)(=O)N1CCC(C(=O)Nc2ccccc2F)CC1  15.8%
3. CCCN(CCC)CCNC(=O)C1CCN(S(=O)(=O)c2cccc3nsnc23)CC1  14.8%
4. O=C(CNC(=O)c1ccc(Cl)cc1)NC(CO)c1ccccc1 (centres unmarked)  14.4%
5. O=C(NCc1nnc(SCC(=O)N2CCCCCC2)o1)c1ccccc1F  14%
6. O=C(COC(=O)CN1C(=O)c2ccccc2C1=O)NC1CCCCC1  13.4%
7. COc1ccc(-n2nc(C(=O)NCC(=O)N3CCN(Cc4ccccc4)CC3)c3ccccc3c2=O)cc1OC  13.4%
8. CCN1CCN(CCNC(=O)Nc2ccc([N+](=O)[O-])cc2)CC1  13.2%
9. O=c1[nH]c(C2CC2)nc2sc3c(c12)CCCC3  13.2%
10. c1ccc(CSc2ccc(-c3cccs3)nn2)cc1  13.1%
11. Cc1ccc(-n2c(N)cc(=O)nc2SCC(=O)N2CCN(c3ccccc3)CC2)cc1  13.1%
12. COc1ccc(OC)c(NC(=O)CC2C(=O)NCCN2C(=O)c2ccccc2)c1 (centres unmarked)  13%
13. N#C/C(=C\c1c(N2CCC(C(N)=O)CC2)nc2ccccn2c1=O)S(=O)(=O)c1ccccc1  12.3%
14. CC1Sc2ccc(S(=O)(=O)N3CCN(c4cccc(Cl)c4)CC3)cc2NC1=O (centres unmarked)  11.6%
15. Cc1nc2ccccc2nc1NS(=O)(=O)c1ccc(N)cc1  11.5%
16. O=C(O)COc1ccc(NC(=O)C(c2ccccc2)c2ccccc2)cc1  11.5%
17. Cc1ccc(OCC(=O)Nc2ccc(C(N)=O)cc2)cc1  10.4%
18. COc1ccc(/C=C(\NC(=O)c2ccc(C)cc2)C(=O)Nc2ccc(C(=O)O)cc2)cc1  10.3%
19. Cc1nnsc1SCCNC(=O)Nc1ccc(Cl)cc1  10.1%
20. O=C(c1ccc(NC(=S)Nc2ccc(F)cc2F)cc1)N1CCOCC1  10%
21. CCOC(=O)c1[nH]c2ccc(OC)cc2c1NC(=O)OC  9.33%
22. COc1ccc(CN2CCNC(=O)C2CC(=O)NCCc2nc(C)c(C)s2)cc1C (centres unmarked)  9.06%
23. O=C(CSc1n[nH]c(=O)n1Cc1ccco1)c1ccc(F)cc1  9%
24. NC(=O)N/N=C\c1cccs1  8.85%
25. CC(=O)N/N=C(\C)c1cccc(C(F)(F)F)c1  8.59%
26. CC(NC(=O)c1ccc(NC(=O)c2ccco2)cc1)c1ccccc1 (centres unmarked)  7.85%
27. O=C(N/N=C/C=C/c1cccc([N+](=O)[O-])c1)c1ccncc1  7.06%
28. COc1ccc(-n2cnnc2SCC(=O)NC2CCS(=O)(=O)C2)cc1 (centres unmarked)  6.86%
29. COc1ccc(OCCOC(=O)Nc2ccccc2)cc1  6.49%
30. COc1ccc(NS(=O)(=O)c2cccc(C(=O)NNC(=O)c3cccn3C)c2)cc1  6.27%
31. COc1ccc(-c2ccc(=O)n(CC(=O)Nc3ccc(C(=O)NC4CC4)cc3)n2)cc1OC  5.54%
32. CCOCCCNC(=O)Cn1cc2c(n1)CCCC2  5.36%
33. COc1ccccc1N(CC(=O)NCc1cccnc1)S(C)(=O)=O  5.33%
34. O=C(COC(=O)c1ccc(S(=O)(=O)NCc2ccco2)cc1)NC1CCCCC1  4.88%
35. C/C(O)=C(\C#N)c1nnc2n1CCCCC2  4.35%
36. O=C(O)C[C@H]1c2cc(F)ccc2S(=O)(=O)N1Cc1ccccc1  4.18%
37. COc1ccc(OC)c(S(=O)(=O)N2CCCC(C(=O)N3CCC(C(N)=O)CC3)C2)c1 (centres unmarked)  4.1%
38. CC(C)(C)c1nc(SCC(=O)Nc2ccc3c(c2)OCCO3)c2ccccc2n1  4.06%
39. O=C(NC1CCCCC1)C(c1ccncc1)N(C(=O)c1ccco1)c1ccc(F)cc1 (centres unmarked)  2.63%
40. COc1cccc(CN2CCN(CC#Cc3ccccc3)CC2CCO)c1 (centres unmarked)  2.55%
41. CC(C)(C)OC(=O)NCc1ccc(CNC(=O)c2[nH]cnc2C(=O)NCC(=O)OCc2ccccc2)cc1  1.13%
42. Cc1ccc(Oc2nnc(-c3ccccc3)cc2C#N)cc1  0.98%
43. Cc1cc(C)n(CC(=O)NNC(=O)CCCOc2ccc(Cl)cc2C)n1  0.531%
44. O=C1OC(c2ccc(O)cc2)(c2ccc(O)cc2)c2ccccc21  -0.351%
45. COc1cc(C(=O)N/N=C\c2ccccc2)c([N+](=O)[O-])c(OC)c1OC  -1.14%
46. CCCN(CCC)C1Cc2cc(OC)c(OC)cc2C1.O=C(O)/C=C\C(=O)O  -1.61%
47. c1coc(CNc2c3c(nc4ncnn24)CCC3)c1  -3.08%
48. C[C@@H]1C[C@H]2[C@@H]3CCC4=CC(=O)C=C[C@]4(C)[C@@]3(F)[C@@H](O)C[C@]2(C)[C@H]1C(=O)CO  -3.26%
49. CCn1c(CCCNC(=O)c2ccc(F)cc2)nc2ccccc21  -7.17%
50. Cc1cc(C(=O)Nc2sc3c(c2C#N)CCCCC3)cs1  -7.49%
51. Cc1cccc(CC(=O)NCCS(=O)(=O)N2CCN(c3cccc(Cl)c3)CC2)c1  -10.2%
52. O=C(CN1CCCCC1)Nc1ccc(N2CCCCCC2)cc1.O=C(O)C(=O)O  -18.1%
53. CCCc1[nH]n(-c2ccc([N+](=O)[O-])cc2)c(=O)c1C(C)=NCc1ccncc1  -26.2%
54. CCN(CC)c1cc(C)c2cc(NC(=O)c3cccs3)ccc2n1  -32.3%
55. Cc1ccc(C)c(OCC(O)CN2CCc3ccccc3C2)c1C.Cl (centres unmarked)  -56.1%
56. O=C(Nc1cc(C(=O)N2CCOCC2)ccc1N1CCCC1)c1cccs1  -78.2%
